Experimental data as given in PubChem BioAssay AID588855 (National Center for Advancing Translational Sciences (NCATS), 2011).
In all, about 410,000 compounds went through this assay and about 5,000 (1.2%) were called active. Inconclusive results, whose numbers are uncertain, are shown with a selection of clear calls. The call rests on the fitted dose curve; in most records, active means well fitted inhibition curve with a large enough effect; inconclusive means small, poorly fitted or top-dose-only effect; inactive means no such curve, though single readings can be large or run the other way. A potency beside an inconclusive call is a rough fit, not a confirmed value.
On the % scale 0 is the no-effect control and ±100 the full control effect; potency means the concentration at half of the fitted maximal effect; tags describe the fitted curve by direction and shape.

Assay: qHTS for Inhibitors of TGF-b; further: nearly all actives have a fitted effect of over 65% in size
Settings: HepG2 CAGA-GFP TGF-b/SMAD3 reporter, GFP fluorescence, 18 h, TGF-beta stimulated, 500 pg/mL final; series mostly up to 46.1 µM; activity, negative = inhibition: at the top concentration
Summary of the method: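 Cell-based qHTS in HEPG2 carrying a CAGA-GFP Smad reporter; compounds added before 500 pg/mL final TGF-beta, 18 h incubation at 37 degrees C, GFP fluorescence quantified per cell by imaging cytometry.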
For `Cc1ccc(/C=N/NC(=O)COc2ccccc2-c2ccccc2)cc1`, the Potency was inconclusive: 7.94 µM [inhibitor, partial curve, poor fit].
For `Cc1nn(C)c2c1c(-c1ccccc1)cc(=O)n2CC(=O)NC(C)c1ccccc1` (stereo unspecified), the “activity, negative = inhibition” value was inactive: -7.82%.
With `COc1cc2sc3ccc(C#Cc4ccccn4)cc3c(=O)c2cc1OC` the “activity, negative = inhibition” value was inactive: 12%.
In the case of `COc1ccc(S(=O)(=O)Nc2cc3c4c(c2)CCC(=O)N4CCC3)cc1C`, the Potency is reported as inconclusive: 0.794 µM [inhibitor, partial curve, poor fit].
With `CCn1c(CCCc2ccc(OC)c(C)c2)n[nH]c1=S` the “activity, negative = inhibition” value was inactive: 4.33%.
In the case of `CC(C)c1ccccc1NC(=O)c1cccc(NC(=O)c2ccccc2)c1`, the “activity, negative = inhibition” value is reported as inactive: -5.4%.
With `CCCN1CCN(CCCNC(=O)CN2C(=O)C(CC)Oc3ccccc32)CC1` (stereo unspecified) the “activity, negative = inhibition” value was inactive: 8.19%.
For `CC1CCN(c2nn3c(=O)c(C(=O)NC(C)C)cnc3s2)CC1`, the Potency was inconclusive: 35.5 µM [inhibitor, single point].
In the case of `CCOc1ccccc1NC(=O)CC1Nc2cc(C)c(C)cc2NC1=O` (stereo unspecified), the “activity, negative = inhibition” value is reported as inactive: 0.119%.
In the case of `Cc1cccc(N(CC(O)CON=C2c3ccccc3-c3ccccc32)S(C)(=O)=O)c1` (stereo unspecified), the Potency is reported as inconclusive: 25.1 µM [inhibitor, single point].
For `CCOC(=O)c1ccc(NC(=O)CNC(=O)c2ccco2)cc1`, the “activity, negative = inhibition” value was inactive: 1.66%.
For `O=S(=O)(c1ccc2c(c1)OCCO2)N1CCC(O)(c2ccc(Cl)cc2)CC1`, the Potency was inconclusive: 14.1 µM [inhibitor, single point].
With `CC(=O)c1cccc(N(CC(=O)Nc2ccc(F)cc2F)S(C)(=O)=O)c1` the Potency was inconclusive: 5.62 µM [inhibitor, single point].
In the case of `NNC(=O)c1[nH]c2ccccc2c1-c1ccccc1`, the Potency is reported as inconclusive: 1.78 µM [inhibitor, full curve, poor fit].
In the case of `COc1ccccc1-c1sc2ccccc2c1-c1ccc(OCCN2CCOCC2)cc1`, the “activity, negative = inhibition” value is reported as inactive: -0.107%.
With `COc1ccc(CNCc2ccc3ccccc3c2)c(OC)c1` the Potency was inconclusive: 35.5 µM [inhibitor, single point].
In the case of `S=C1NCN(Cc2cccnc2)CN1`, the “activity, negative = inhibition” value is reported as inactive: -3.68%.
With `CCOC1=C2[C@@H](CN(S(=O)(=O)c3ccc(C)cc3)[C@H]2c2ccccc2Cl)[C@H]2C(=O)N(C)C(=O)[C@H]2C1` the “activity, negative = inhibition” value was inactive: -0.191%.
In the case of `COc1ccc(OC)c(S(=O)(=O)NCCS(=O)(=O)N2CCN(c3ccccc3)CC2)c1`, the Potency is reported as inconclusive: 8.91 µM [inhibitor, partial curve, poor fit].
With `O=C(CSc1cn(CC(=O)N2CCCCC2)c2ccccc12)Nc1ccccc1` the “activity, negative = inhibition” value was inactive: -9.62%.
With `COc1ccc(OC)c(C2=NS(=O)(=O)N(C)C(C(=O)Nc3ccc(F)cc3F)=C2)c1` the Potency was inconclusive: 6.31 µM [inhibitor, partial curve, poor fit].
